± gives the standard deviation of the averaged measurements. This is one part of the list.
system: PfAP2-G AP2 domain (GST-tagged); test: gcPBM binding intensity (ln(normalized median fluorescence intensity)); higher = stronger DNA binding
In short: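 GST-fused DNA-binding domains of P. falciparum, expressed in E. coli, were applied at about 25 μg on average for 1 h to an Agilent 4 × 180k array of primer-extended double-stranded 36-bp intergenic genomic probes and negative controls. Binding intensity is the highest Masliner-normalised natural-log median intensity across replicate spots of either probe orientation, measured with Alexa488 anti-GST antibody and a 488 nm scan.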

Row | Sequence | gcPBM binding intensity (ln)
1 | AAAAAGGTTATTGGTACACACATATGTATTTATATA [CACACA_site4464] | 11.2 ± 0.74
2 | ACTACAAGGCAATACAGTACATATAAATGTCATAAT [XGTACX_site8468] | 10.8 ± 0.51
3 | AAAAGAATTACTTTCACACATATATATCTGTAAATA [CACACA_site5798] | 9.65 ± 0.16
4 | TACATATTTATATACACACACACCCTAAAAATATAT [CACACA_site6861] | 10.2 ± 0.17
5 | AATAATGAAGCTTATGCACACGTTCATTATTTATAT [CACACA_site5736] | 10
6 | ATAATTTTTTTTTTTTTTTTTTGAAAGTAGCATATG [CACACA_negctrl_site732] | 9.74 ± 0.14
7 | TATTTTATGTAAATTGGTACACATATGTCAGTAAAA [XGTACX_site7111] | 11.2 ± 0.79
8 | GATGCTAAAATTTATACACACAAAAAAAAAAAATTC [CACACA_site3284] | 10.1 ± 0.23
9 | AAAAAAAAAAAATATACACACACACCGACACATAAA [CACACA_site9270] | 10.14 ± 0.021
10 | TTTTGAATATTTGGTCGTACGTAAAAATAGATAATT [XGTACX_site5755] | 11.5 ± 0.98
11 | TTTCATATTTTGTCCTGTTTTTTTTTTTTTTTTCTT [CACACA_negctrl_site993] | 10.2 ± 0.099
12 | TTGAATGAAAAAATTTGTACTCATATAAATAATTTA [XGTACX_site4628] | 11.1 ± 0.79
13 | AAAATATAAAAAGTCACACATATATATATTTATTTA [CACACA_site4872] | 9.7 ± 0.028
14 | AGGAGAAAAGATAAAGACTTCAAGAAAAAAAAATAA [TGCATGCA_negctrl_site258] | 9.67 ± 0.028
15 | CAATAATTTTTTGTGGGTACAAATAATTTTTTAAAT [XGTACX_site2407] | 11.2 ± 0.88
16 | TTTATTATAATATGTTGTACAAGACGTTTCAGTATA [XGTACX_site4486] | 11.2 ± 0.69
17 | AAATTATCTTAATAGGATGTTCAAGGAGAAAGATGA [CACACA_negctrl_site1032] | 9.905 ± 0.049
18 | TAAATTAATACCTATGCACACATTTTTTTTTTTAAA [CACACA_site1238] | 10.01 ± 0.057
19 | AAACCCTATTCAATGCAATAATTTTATAATTTTTTT [TGCATGCA_negctrl_site434] | 9.46 ± 0.31
20 | TTTTTTTTAAATATCACACACATATAATATATTCTA [CACACA_site3668] | 9.88 ± 0.15
21 | CTTAAATTTTTAAATACACACATACACCCATACACA [CACACA_site4461] | 10.7 ± 0.51
22 | TAGCGGCGGTATCATGCACACGTATATATTGTAACA [CACACA_site8453] | 10.15 ± 0.099

Row | Sequence | gcPBM binding intensity (ln)
23 | ATAGTTTTATATAAATGTACAAATGATTTCAAATAG [XGTACX_site8236] | 10.7 ± 0.45
24 | AACATGTATATATTATGTACATATGTTAAAATGATA [XGTACX_site6217] | 11.1 ± 0.59
25 | TTAGCAACTATTACTACACACATTTGTATATAACTT [CACACA_site6850] | 10.09 ± 0.028
26 | GTGGAAATATAACACATTTTTTTTAATAATTATATT [TGCATGCA_negctrl_site522] | 9.67 ± 0.16
27 | TTACCTTTTTCTAATGGTACACATAAAATATCATTT [XGTACX_site6825] | 11.1 ± 0.73
28 | TTTTCTTACACGAATTTTAAATTCAATATTAAACAT [CACACA_negctrl_site286] | 10.1 ± 0.14
29 | GAGTTAATTTTTTCGTGTACTTGAAAATATTTTTTT [XGTACX_site6392] | 11.4 ± 0.89
30 | TATATATATATATATATACACACGTATATATATACA [CACACA_site4155] | 10 ± 0.45
31 | ATATCTTTGCAAAGATGTACTTGTAAAAATATATGA [XGTACX_site768] | 11.3 ± 0.95
32 | TAATATCAATATAAAGTACACACTATAGTATGTATT [CACACA_site2280] | 11.3 ± 0.87
33 | TTTATATTTAAATATATATGAGAAAACACAAAATAT [TGCATGCA_negctrl_site211] | 10.105 ± 0.007
34 | TAAAAGTAAAGACATGCATGCATTGGTATCTTTTAC [TGCATGCA_site665] | 9.81 ± 0.17
35 | GACCCACTTTTCTGCACACATAAAAAATATATAAAT [CACACA_site4483] | 10.5 ± 0.38
36 | TATAATAAAACTTTTACACACTTTAAAAAAAAAAAA [CACACA_site6392] | 9.75 ± 0.23
37 | GCTTCATTTTAAACTTGTACTTATTTTTTGGTAAAT [XGTACX_site8879] | 11.4 ± 0.96
38 | TTGTTTGTTGTAACGTGTACAGATAAAAATAAAGGG [XGTACX_site375] | 11.5 ± 0.93
39 | TTCATATTATAGTGCACACAAAAATATATATATGGT [CACACA_site2855] | 10.7 ± 0.39
40 | TCTCTCATTTATTTTTGTACTTAATCCAGCACGTTT [XGTACX_site1369] | 11.1 ± 0.69
41 | ACATATTAATTATAAAGTACATATATATATATATAT [XGTACX_site4540] | 11.3 ± 0.79
42 | TAGTTACTTCTTATATAAAATATGTATATAAAAATA [GTGCAC_negctrl_site190] | 9.87 ± 0.18
43 | TTCCTTTTGAACTCTCGTACGCGTAGGTGTTATTAT [XGTACX_site6264] | 11.2 ± 0.79
44 | TATTAAAAGTAAAAAACACACATGGATATATACATA [CACACA_site3959] | 10.02 ± 0.042

Row | Sequence | gcPBM binding intensity (ln)
45 | CATTTTTAAAAAAATTGTACAAAACATATATGTGTA [XGTACX_site3396] | 10.9 ± 0.4
46 | TTTTTTTTTTGATGTTGTACTTATATACTATATAAT [XGTACX_site2778] | 11.3 ± 0.86
47 | GTTGTGTAATTCGTAACACACATAAAATATAAATAA [CACACA_site7799] | 10.2 ± 0.17
48 | AAAAAAAAAAAAAAAAAAAAAAAAATATATATATAT [CACACA_negctrl_site436] | 11.1 ± 0.44
49 | TTACTATATAATATGTGTACACAACATATAATATAT [XGTACX_site1383] | 11.6 ± 0.91
50 | TAAATAAATAAAAAAACACACATATAAATATAAATA [CACACA_site7815] | 9.67 ± 0.17
51 | TGTTTCCTATTTTGTATGCACTTTTTGTCATAATTA [GTGCAC_site9921] | 10.3 ± 0.23
52 | TATATTGCCCTTCACACACACACATATATATATATA [CACACA_site2492] | 10.3 ± 0.26
53 | TAAAAATGTTGACACACACACATAAATATATTTTAT [CACACA_site7227] | 10.4 ± 0.34
54 | ATTTTTATACCTAAGTGTACATGATGTTTTCTTTTT [XGTACX_site973] | 11.2 ± 0.73
55 | TATTATATAATAAAAATTATTATTATTTGTATAAAT [CACACA_negctrl_site195] | 9.69 ± 0.22
56 | TATGTGTGACAAAATTGTACGGTCTCTTTATTTTGT [XGTACX_site2679] | 10.8 ± 0.42
57 | TATACGGACTCTAAGTGTACTTAAAATAATTCAAAC [XGTACX_site3606] | 11.5 ± 0.84
58 | TTTATAGTTTTTAATAGTACACATATTTTTAAGTAT [XGTACX_site5498] | 11.2 ± 0.86
59 | TTTTGTGGAGGATGGTGTACGGTATTGTATTATTAC [XGTACX_site1942] | 11.1 ± 0.64
60 | TATCATAAAATATGTAGTACGTATATATATAAAAAT [XGTACX_site5455] | 11.5 ± 0.8
61 | CATATACTCGGACACACACACACACCGACAAAAAAA [CACACA_site4433] | 11.2 ± 0.73
62 | TAAACAGACATACATACACACATACATACAGACATA [CACACA_site6997] | 10.1 ± 0.18
63 | AAAAAAAAAGTATATATATATTTAAGGAATTCTCTC [GTGCAC_negctrl_site454] | 9.885 ± 0.064
64 | CAACCTTTTTTGTTGGTGCATAATTTTTTTTTCTTT | 10.3 ± 0.11
65 | ATATATATATATTGCACACATATAAATATATATATT [CACACA_site807] | 10.1 ± 0.63
66 | ATACATTTTTTTTTCACACATATATATATATTTAAT [CACACA_site5995] | 9.98 ± 0.12

Row | Sequence | gcPBM binding intensity (ln)
67 | CTCACGTAGCTTGATGCATGCAAACTTGAGTAAAAG [TGCATGCA_site409] | 9.925 ± 0.078
68 | TTTATAAAATTTATTGCACACAATTATTTTATAATT [CACACA_site2489] | 9.97 ± 0.085
69 | AATATATAGCTAAAAACACACAAATATATACTCATA [CACACA_site5904] | 9.9 ± 0.042
70 | ATATGTACGCAAGGTGCACACTGGTGCATTAAAAAA [CACACA_site1801] | 11.6 ± 1.2
71 | GTATATATATATATATGTACATATATGTAGATATAT [XGTACX_site5431] | 11.1 ± 0.54
72 | AATATATCCTATTCGAACAAAAATACATGCACATAT [CACACA_negctrl_site1058] | 10.14 ± 0.042
73 | TTTTATTTTTTCTCACGTACAAATATATAATTTTTT [XGTACX_site6952] | 11.1 ± 0.53
74 | TACATATGGCACATATGTACACACGTATAGATAATA [XGTACX_site4123] | 11.3 ± 0.77
75 | ATGAATATAAAATATACACACTTATATATCGAATGA [CACACA_site6240] | 9.79 ± 0.13
76 | CACAGACATATATATACACACTTTTATTTAAATAAC [CACACA_site4962] | 10.3 ± 0.23
77 | TCTCAGTAAATTAAATGTACATAAGGGAGGAACTAT [XGTACX_site8045] | 11 ± 0.63
78 | TTGTGGATTTTGTGCGCACACACATGCAAAAAGAAA [CACACA_site1147] | 10.9 ± 0.66
79 | TAAATATATGCATATACACACAACAAAAAAATATAT [CACACA_site2341] | 10.07 ± 0.028
80 | TATAAAAATAATATTACACACATGTAAAATGGCTGT [CACACA_site5755] | 9.86 ± 0.028
81 | AAAAAAAAAATGTGCACACGCGTACACCCAAAAAAA [CACACA_site5149] | 11.7 ± 0.99
82 | TTTTTGTATCCTTCTTCTTTTTCCAGACTACATTAT [XGTACX_negctrl_site216] | 10.3 ± 0.18
83 | ATATTATTTTAAAAAAGTACATTTTTAAGAATTCTT [XGTACX_site6630] | 11.2 ± 0.79
84 | AACATATAAATAAACTGTACATATATATATATATAT [XGTACX_site1056] | 11 ± 0.69
85 | GGGGAAAAAAAAAAAGGAAAAAGAAAAAAAAAAAAA [GTGCAC_negctrl_site489] | 9.86 ± 0.28
86 | TATCATTATGTAGAAACACACATAAGCTTCGGTTCA [CACACA_site2766] | 9.7 ± 0.18
87 | AATTGCATAATATATTCACACATTTTTAAGTGATAC [CACACA_site5679] | 9.93 ± 0.13
88 | GTAAAGGCTATATATGTGCACATTTTTTTTTTTTTT [GTGCAC_site9925] | 10.27 ± 0.092

Reference: the supplement of paper PMC11417369
